Data as given in the supplement of paper PMC10986608.
This is one part of the list. Repeats are few or missing, and single values can be far off.

System: Candida albicans DPL-15
Assay: growth (OD600) after compound treatment (apparently relative to screen median) (relative growth (fraction; screen median 1.02)); DPL-15 is a caspofungin-resistant clinical isolate; higher = more fungal growth (less antifungal activity)
Conditions: 25 µM; RPMI 1640; 48 h; 30 °C

Row | Structure (SMILES) | growth
1 | COc1ccc(COc2c(-c3ccccc3)oc3ccccc3c2=O)cc1OC | 1.04
2 | COC(=O)C1=C(C)N(CC#Cc2ccc(OC)cc2)C(=O)NC1c1ccccc1 (stereo unspecified) | 0.985
3 | CC(=O)OC[C@H]1O[C@H](C#CCC2CCCCC2)C=C[C@H]1OC(C)=O | 0.874
4 | Cc1cc(O)c2c(c1)O[C@]1(C)C(=C(O)CC[C@H]1O)C2=O | 0.832
5 | CC(C)=CCc1cc(O)c(O)c2[nH]c3ccccc3c(=O)c12 | 0.785
6 | COc1oc(C)cc(=O)c1-c1ccc([N+](=O)[O-])cc1 | 1.16
7 | CC1=NCC(C)(C)NC2=C1C(c1cccc(C(F)(F)F)c1)N(Cc1ccccc1)C2=O (stereo unspecified) | 1.07
8 | CC(=O)OC[C@H]1O[C@H](c2ccc(C(C)(C)C)cc2)C=C[C@H]1OC(C)=O | 0.901
9 | COc1ccc2c(=O)c3cc(C(F)(F)F)ccc3oc2c1OCC=C(C)C | 0.955
10 | CCOc1c(F)ccc(C2NC(=O)N3CCC=CC3=C2C(C)=O)c1F (stereo unspecified) | 0.96
11 | CCc1ccc(CCOS(=O)(=O)NC(C)(C)C)cc1 | 1.03
12 | CO[C@@H]1[C@H](O)CC[C@]2(O)CN(CC3CCCCC3)[C@](C)([C@H](O)CC=C(C)C)[C@@H]12 | 1.08
13 | CC(C)Cc1n[nH]c2c1C(c1ccc(F)cc1)N(c1ccc(N(C)C)cc1)C2=O (stereo unspecified) | 1.11
14 | COc1ccc(N2C(=O)c3[nH]nc(CC(C)C)c3C2c2ccsc2)cc1 (stereo unspecified) | 1.13
15 | COc1ccc(Cn2ncc(-c3ccccc3)c2N)cc1 | 0.775
16 | COCOc1cccc2c(OC)c(C3=C(C(=O)O)[C@@H](OC(C)=O)[C@@]4(C)O[C@H]4[C@H]3OC(C)=O)cc(OC)c12 | 1.03
17 | CCOC(=O)CN1C(=O)N[C@@H](CCc2ccccc2)C(C(C)=O)=C1C | 0.917
18 | COc1cc(CCC(=O)/C=C(\O)CCc2ccc(O)c(OC)c2)ccc1O | 0.973
19 | C[C@@H]1/C=C/CC(=O)OCCCC(=O)N2CCC[C@H]2C(=O)N[C@@H]1c1ccc(Br)cc1 | 0.991
20 | COc1cc(OC)c2c(=O)c3c(CC=C(C)C)ccc(OCC(=O)O)c3oc2c1 | 1.1
21 | CC1(C)O[C@@H]2[C@@H](O1)C(c1ccccc1)(c1ccccc1)OP(=O)(O)OC2(c1ccccc1)c1ccccc1 | 1.04
22 | CCC1=CCN(S(=O)(=O)c2ccc(C)cc2)C/C1=C(/c1ccccc1)c1cccc(N(C)C)c1 | 0.887

Row | Structure (SMILES) | growth
23 | CC(=O)C1=C(C)N(Cc2ccccc2)C(=S)NC1c1ccccc1F (stereo unspecified) | 0.946
24 | CCO[C@]1(c2ccc3c(c2)OCO3)Oc2ccc(Cl)cc2C(=O)[C@]12OCC=C2C | 0.958
25 | COC(=O)C1=C(C)N(C)C(=S)NC1c1cccc(OC)c1 (stereo unspecified) | 1.19
26 | COC(=O)[C@@]12Oc3cccc(O)c3C(OC)=C1C(=O)C[C@H](C)[C@H]2O | 1.04
27 | CNc1ccccc1C(=O)OC/C=C/c1ccccc1 | 1.11
28 | COC(=O)C1=C(C)N(CC#Cc2ccccc2)C(=O)NC1c1ccccc1 (stereo unspecified) | 1.17
29 | CCN1C(NCCCOC(C)C)=N[C@@H](c2cccc(F)c2)C(C(=O)OC)=C1C | 1.13
30 | O=C(Cc1ccc([N+](=O)[O-])cc1)N1Cc2ccccc2C1 | 1.15
31 | N#Cc1ccc(S(=O)(=O)N2CCCc3nc(-c4ccccc4)ccc32)cc1 | 0.91
32 | COC(=O)C1=C(C)NC(=O)NC1c1cc(OC)c(OC)c(OC)c1 (stereo unspecified) | 1.17
33 | c1ccc(CCCc2cc(CCCc3ccccc3)nc(CCCc3ccccc3)c2)cc1 | 1.2
34 | COC(=O)C1=C(C)N(CCCOC(C)C)C(NCc2ccccc2)=NC1c1ccccc1 (stereo unspecified) | 1.28
35 | COC(=O)Cc1nnn2c1[C@H](C)[C@@H](OC)c1ccc(C(F)(F)F)cc1-2 | 1.07
36 | CON(C)C(=O)c1nnc2c3ccccc3n(S(=O)(=O)c3ccc(C)cc3)c2n1 | 0.944
37 | CC1=C[C@H](COc2ccc(Br)cc2)O[C@]2(C1)C(=O)Nc1c(F)cccc12 | 0.809
38 | COC(=O)C1=C(C(=O)OC)[C@@H]2N(C)c3ccccc3[C@@]23C[C@@H](C(=O)OC)N(C(=O)CC(C)C)C3=N1 | 0.936
39 | CCc1cc(Nc2cc(O)cc(O)c2C(=O)N2Cc3cn[nH]c3C2)n(Cc2ccc(OC)cc2)n1 | 1.46
40 | C=CCN1C(=O)C2=C(C(c3ccccc3)=NCC(C)(C)N2)C1c1ccccc1 (stereo unspecified) | 1.04
41 | C#CCN(Cc1ccc(C(=O)c2ccccc2)cc1)CC1CCCN(CCc2ccccc2C)C1 (stereo unspecified) | 0.926
42 | CC(=O)OC[C@H]1O[C@H](C#Cc2ccsc2)C=C[C@H]1OC(C)=O | 1.01
43 | COc1ccc(CO/N=C2\CCCC/C=C/CCOC(=O)c3c(O)cc(O)c(Cl)c3C2)cc1 | 1.13
44 | CC(C)Cc1n[nH]c2c1C(c1ccc(F)cc1)N(c1ccccc1N(C)C)C2=O (stereo unspecified) | 0.965

Row | Structure (SMILES) | growth
45 | CCCCCCCc1cccc(Cl)n1 | 1.11
46 | COCCN1C(NCC2CCCCC2)=NC(c2ccccc2)C(C(=O)OC)=C1C (stereo unspecified) | 1.24
47 | CC1(C)CC(=O)C2=C(C1)O[C@@]1(CCCCN3C(=O)c4ccccc4C3=O)Cc3ccccc3C2O1 | 0.876
48 | CCCCCNS(=O)(=O)NC(C)(C)C | 1.04
49 | CN(Cc1cccnc1)CC1CCCN(CCc2ccccc2)C1 (stereo unspecified) | 0.878
50 | CC(C)Cc1n[nH]c2c1C(c1ccc(Br)cc1)NC2=O (stereo unspecified) | 0.843
51 | CC#CCN1C(=O)N(C(C)=O)C(c2ccccc2)C(C#N)=C1C (stereo unspecified) | 0.998
52 | CC(C)c1c2c(nn1-c1ccc(OC(F)(F)F)cc1)C(=O)NC2c1ccc2c(c1)OCO2 (stereo unspecified) | 1.04
53 | C[C@@H](CO)[C@@H]1CC[C@]2(CO)CC[C@]3(C)[C@H](CC[C@@H]4[C@@]5(C)CC[C@H](O)C(C)(C)[C@@H]5CC[C@]43C)[C@@H]12 | 1
54 | CCOc1ccncc1I | 1.27
55 | Clc1cc(Cl)c2c3c([nH]c2c1)CCCC3 | 0.877
56 | CC(C)c1nn(-c2ccc(F)cc2)c2c1C(c1cccc(C(F)(F)F)c1)NC2=O (stereo unspecified) | 1.04
57 | C#CCC(C)(C)CNC(=O)CC1(CNC(=O)c2cccc(C=O)c2)CCCCC1 | 1.02
58 | COC(=O)/C(=C\c1ccccc1)C(=O)c1c(-c2ccc(OC)cc2)oc2cc(OC)cc(OC)c12 | 1.01
59 | CCCc1cc2c(OC)ccc(O)c2c(=O)n1C | 0.912
60 | COC(=O)[C@H]1[C@@H](O)[C@@]2(O)c3c(OC)cc(OCc4ccccc4)cc3O[C@@]2(c2ccc(OC)cc2)[C@@H]1c1ccccc1 | 0.955
61 | C=CCN1C(=O)[C@]2(OCCC=C[C@H]2C)c2c(Br)cccc21 | 1
62 | CCOC(=S)SN(C(C)(C)C)S(=O)(=O)OCCCCCC(=O)OC | 0.861
63 | COC(=O)C1=C(C)N(CC(C)C)C(=S)NC1c1cccc(OC)c1 (stereo unspecified) | 0.939
64 | Cc1ccc(C2NC(=O)c3c2c(C)nn3-c2cc(C)cc(C)c2)cc1 (stereo unspecified) | 1.03
65 | COc1cc([C@@H]2[C@@H](C(=O)NCC3CC3)[C@H](C(=O)NCC3CC3)[C@H]2c2cc(OC)c(OC)c(OC)c2)cc(OC)c1OC | 0.911
66 | COc1ccccc1N1C(=O)c2[nH]nc(CC(C)C)c2C1c1ccc(F)cc1 (stereo unspecified) | 0.975

Row | Structure (SMILES) | growth
67 | C[C@@H]1CC2=CCC[C@H]2[C@]2(O1)C(=O)Nc1cc(F)ccc12 | 1
68 | CCNC(=O)O[C@@H]1C=C[C@@H](C#Cc2ccc(C(C)(C)C)cc2)O[C@@H]1COC(C)=O | 1.09
69 | COCCN1C(=S)NC(c2ccc(C)cc2)C(C(=O)OC)=C1C (stereo unspecified) | 1.12
70 | C=CCN1C(=O)c2[nH]nc(CC(C)C)c2C1c1ccc(F)cc1 (stereo unspecified) | 1.02
71 | O=C(NC1CCCC1)[C@@H]1[C@H](C(=O)NC2CCCC2)[C@@H](c2ccccc2)[C@H]1c1ccccc1 | 1.08
72 | COc1ccc(C2=C(c3ccccc3)c3c(nc(-c4ccccn4)[nH]c3=O)C2=O)cc1 | 1.25
73 | COc1ccc2c(c1)[C@@H](NS(=O)(=O)c1ccc(C#N)cc1)[C@H](C)[C@H]2c1ccccc1 | 1.14
74 | CCc1ccccc1-n1nc(-c2ccccc2)c2c1C(=O)NC2c1ccccc1 (stereo unspecified) | 0.97
75 | COc1ccc(Cn2nc(-c3ccccc3)cc2Nc2cc(O)cc(O)c2C(=O)N(C)CC2CCOCC2)cc1 | 1.04
76 | COC(=O)C(CC(C)(C)CCOS(=O)(=O)NC(C)(C)C)c1ccccc1 (stereo unspecified) | 1.11
77 | C[C@]1(Cc2occc(=O)c2OS(C)(=O)=O)C(c2ccc(F)cc2)=Nc2ccccc21 | 1.59
78 | CC(C)C1=NCCNC2=C1C(c1ccc(Br)cc1)NC2=O (stereo unspecified) | 0.935
79 | CN(C)[C@@H]1CCN(C(=O)c2c(O)cc(O)cc2Nc2ccnn2C)C1 | 0.966
80 | CCOC(=S)SC(CC)CCOS(=O)(=O)NC(C)(C)c1ccccn1 (stereo unspecified) | 1.01
81 | COC(=O)C1=C(C)N(Cc2cccc(C(F)(F)F)c2)C(NCc2ccc(OC)cc2)=NC1c1ccc(Cl)cc1 (stereo unspecified) | 0.9
82 | COC(=O)C/C=C/[C@@H](C)[C@H](NC(=O)OCC(Cl)(Cl)Cl)c1cccc(OC)c1 | 0.861
83 | COc1cccc([C@H]2NC(=O)C/C=C/[C@@H](C)[C@@H](c3cccc(OC)c3)NC(=O)C/C=C/[C@H]2C)c1 | 1.02
84 | c1ccc(-c2cc3c(nc2-c2ccccc2)CCCN3)cc1 | 1.06
85 | C=C(C)CCc1n[nH]c2c1C(c1ccc(F)cc1)N(c1ccc(OC)cc1)C2=O (stereo unspecified) | 1.07
86 | CC(C)=CCc1cc(O)cc2oc3cccc(O)c3c(=O)c12 | 1.02
